The other results are listed elsewhere or left out.
Experiments:
Assay in all cases: glycan array binding signal (z-score within array); higher = stronger binding
Settings in all cases: glycan notation: IUPAC condensed, linker removed
Gal(b1-4)Glc6S = molecular target: Gal(b1-4)Glc6S
How it was run: (§1)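 Columns mapping to the same glycan were averaged after glycan names were converted to IUPAC-condensed notation. The data come from 3228 arrays in the Consortium for Functional Glycomics database, limited to those with an available protein sequence. Binding is reported as a within-array Z-score averaged across arrays of one protein sequence and across linkers.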

Gal(b1-4)GlcNAc = molecular target: Gal(b1-4)GlcNAc
How it was run: as §1

[1] = molecular target: Gal(b1-4)GlcNAc(b1-2)Man(a1-3)[Gal(b1-4)GlcNAc(b1-2)Man(a1-6)]Man(b1-4)GlcNAc(b1-4)GlcNAc
How it was run: as §1

[2] = molecular target: Gal(b1-4)GlcNAc(b1-3)Gal(b1-4)Glc
How it was run: as §1

[3] = molecular target: Gal(b1-4)GlcNAc(b1-3)Gal(b1-4)GlcNAc
How it was run: as §1

[4] = molecular target: Gal(b1-4)GlcNAc(b1-3)Gal(b1-4)GlcNAc(b1-3)Gal(b1-4)GlcNAc
How it was run: as §1

[5] = molecular target: Gal(b1-4)GlcNAc(b1-3)Gal(b1-4)[Fuc(a1-3)]GlcNAc(b1-3)Gal(b1-4)[Fuc(a1-3)]GlcNAc
How it was run: as §1

[6] = molecular target: Gal(b1-4)GlcNAc(b1-3)GalNAc
How it was run: as §1

[7] = molecular target: Gal(b1-4)GlcNAc(b1-3)[Gal(b1-4)GlcNAc(b1-6)]GalNAc
How it was run: as §1

[8] = molecular target: Gal(b1-4)GlcNAc(b1-6)GalNAc
How it was run: as §1

[9] = molecular target: Gal(b1-4)GlcNAc(b1-6)[Gal(b1-3)]GalNAc
How it was run: as §1

[10] = molecular target: Gal(b1-4)GlcNAc(b1-6)[Gal(b1-3)]GlcNAc
How it was run: as §1

Gal3S(b1-3)GalNAc = molecular target: Gal3S(b1-3)GalNAc
How it was run: as §1

Gal3S(b1-3)GlcNAc = molecular target: Gal3S(b1-3)GlcNAc
How it was run: as §1

[11] = molecular target: Gal3S(b1-3)[Fuc(a1-4)]GlcNAc
How it was run: as §1

Gal3S(b1-4)Glc = molecular target: Gal3S(b1-4)Glc
How it was run: as §1

Gal3S(b1-4)Glc6S = molecular target: Gal3S(b1-4)Glc6S
How it was run: as §1

Gal3S(b1-4)GlcNAc = molecular target: Gal3S(b1-4)GlcNAc
How it was run: as §1

Gal3S(b1-4)GlcNAc6S = molecular target: Gal3S(b1-4)GlcNAc6S
How it was run: as §1

Gal3S6S(b1-4)GlcNAc = molecular target: Gal3S6S(b1-4)GlcNAc
How it was run: as §1

Gal3S6S(b1-4)GlcNAc6S = molecular target: Gal3S6S(b1-4)GlcNAc6S
How it was run: as §1

Gal4S(b1-4)GlcNAc = molecular target: Gal4S(b1-4)GlcNAc
How it was run: as §1

Gal4S6S(b1-4)GlcNAc = molecular target: Gal4S6S(b1-4)GlcNAc
How it was run: as §1

Gal6S(b1-4)Glc = molecular target: Gal6S(b1-4)Glc
How it was run: as §1

Gal6S(b1-4)Glc6S = molecular target: Gal6S(b1-4)Glc6S
How it was run: as §1

Gal6S(b1-4)GlcNAc = molecular target: Gal6S(b1-4)GlcNAc
How it was run: as §1

GalNAc(a1-3)Gal = molecular target: GalNAc(a1-3)Gal
How it was run: as §1

GalNAc(a1-3)GalNAc = molecular target: GalNAc(a1-3)GalNAc
How it was run: as §1

[12] = molecular target: GalNAc(b1-3)Gal(a1-4)Gal(b1-4)GlcNAc
How it was run: as §1

GalNAc(b1-4)GlcNAc = molecular target: GalNAc(b1-4)GlcNAc
How it was run: as §1

Glc(a1-4)Glc = molecular target: Glc(a1-4)Glc
How it was run: as §1

Glc(a1-6)Glc(a1-6)Glc = molecular target: Glc(a1-6)Glc(a1-6)Glc
How it was run: as §1

Glc(b1-4)Glc = molecular target: Glc(b1-4)Glc
How it was run: as §1

Glc(b1-6)Glc = molecular target: Glc(b1-6)Glc
How it was run: as §1

GlcA(b1-3)Gal = molecular target: GlcA(b1-3)Gal
How it was run: as §1

GlcA(b1-6)Gal = molecular target: GlcA(b1-6)Gal
How it was run: as §1

[13] = molecular target: GlcNAc(a1-3)Gal(b1-4)GlcNAc
How it was run: as §1

[14] = molecular target: GlcNAc(a1-6)Gal(b1-4)GlcNAc
How it was run: as §1

B1: FBG5 (Homo sapiens), Q8NI29 (protein)
chain: MGASVSRGRAARVPAPEPEPEEALDLSQLPPELLLVVLSHVPPRTLLGRCRQVCRGWRALVDGQALWLLILARDHGATGRALLHLARSCQSPARNARPCPLGRFCARRPIGRNLIRNPCGQEGLRKWMVQHGGDGWVVEENRTTVPGAPSQTCFVTSFSWCCKKQVLDLEEEGLWPELLDSGRIEICVSDWWGARHDSGCMYRLLVQLLDANQTVLDKFSAVPDPIPQWNNNACLHVTHVFSNIKMGVRFVSFEHRGQDTQFWAGHYGARVTNSSVIVRVRLS
For B1, the “glycan array binding signal (z-score)” value (Gal(b1-4)Glc6S) was -0.119, the “glycan array binding signal (z-score)” value (Gal(b1-4)GlcNAc) was -0.186 and the “glycan array binding signal (z-score)” value [1] was -0.102. For the same binder, the “glycan array binding signal (z-score)” value [2] was -0.164, the “glycan array binding signal (z-score)” value [3] was -0.132 and the “glycan array binding signal (z-score)” value [4] was -0.193. The “glycan array binding signal (z-score)” value [5] was -0.087, the “glycan array binding signal (z-score)” value [6] was -0.254 and the “glycan array binding signal (z-score)” value [7] was -0.152. The “glycan array binding signal (z-score)” value [8] was -0.175, the “glycan array binding signal (z-score)” value [9] was -0.079 and the “glycan array binding signal (z-score)” value [10] was -0.221. For the same binder, the “glycan array binding signal (z-score)” value (Gal3S(b1-3)GalNAc) was -0.205, the “glycan array binding signal (z-score)” value (Gal3S(b1-3)GlcNAc) was -0.161 and the “glycan array binding signal (z-score)” value [11] was -0.099. For the same binder, the “glycan array binding signal (z-score)” value (Gal3S(b1-4)Glc) was -0.15, the “glycan array binding signal (z-score)” value (Gal3S(b1-4)Glc6S) was 0.206 and the “glycan array binding signal (z-score)” value (Gal3S(b1-4)GlcNAc) was -0.166. For the same binder, the “glycan array binding signal (z-score)” value (Gal3S(b1-4)GlcNAc6S) was 0.226, the “glycan array binding signal (z-score)” value (Gal3S6S(b1-4)GlcNAc) was -0.009 and the “glycan array binding signal (z-score)” value (Gal3S6S(b1-4)GlcNAc6S) was 2.32. The “glycan array binding signal (z-score)” value (Gal4S(b1-4)GlcNAc) was -0.127, the “glycan array binding signal (z-score)” value (Gal4S6S(b1-4)GlcNAc) was -0.011 and the “glycan array binding signal (z-score)” value (Gal6S(b1-4)Glc) was -0.08. For the same binder, the “glycan array binding signal (z-score)” value (Gal6S(b1-4)Glc6S) was 0.548, the “glycan array binding signal (z-score)” value (Gal6S(b1-4)GlcNAc) was -0.045 and the “glycan array binding signal (z-score)” value (GalNAc(a1-3)Gal) was -0.208. The “glycan array binding signal (z-score)” value (GalNAc(a1-3)GalNAc) was -0.185, the “glycan array binding signal (z-score)” value [12] was -0.139 and the “glycan array binding signal (z-score)” value (GalNAc(b1-4)GlcNAc) was -0.199. The “glycan array binding signal (z-score)” value (Glc(a1-4)Glc) was -0.188, the “glycan array binding signal (z-score)” value (Glc(a1-6)Glc(a1-6)Glc) was -0.245 and the “glycan array binding signal (z-score)” value (Glc(b1-4)Glc) was -0.165. For the same binder, the “glycan array binding signal (z-score)” value (Glc(b1-6)Glc) was -0.21, the “glycan array binding signal (z-score)” value (GlcA(b1-3)Gal) was -0.234 and the “glycan array binding signal (z-score)” value (GlcA(b1-6)Gal) was -0.081. The “glycan array binding signal (z-score)” value [13] was -0.094 and the “glycan array binding signal (z-score)” value [14] was -0.229.
